Results taken from patent US20200354460A1 (WUXI BIOLOGICS IRELAND, published 2020).
Residue numbers refer to the chain shown, from its start. Names may count otherwise.

B1: WBP336B = W336-T1U2.G10-4.uhIgG4.SP(dK) (bispecific antibody)
heavy: DVVMTQSPLSLPVTLGQPASISCRSSQSLLDSDGGTYLYWFQQRPGQSPRRLIYLVSTLGSGVPDRFSGSGSGTDFTLKISRVEAEDVGVYYCMQLTHWPYTFGQGTKLEIKGGGGSGGGGSGGGGSQVQLVQSGAEVKKPGSSVKVSCKASGFTFTTYYISWVRQAPGQGLEYLGYINMGSGGTNYNEKFKGRVTITADKSTSTAYMELSSLRSEDTAVYYCAILGYFDYWGQGTMVTVSSASTKGPSVFPLAPCSRSTSESTAALGCLVKDYFPEPVTVSWNSGALTSGVHTFPAVLQSSGLYSLSSVVTVPSSSLGTKTYTCNVDHKPSNTKVDKRV[human IgG4 Fc with S228P (EU numbers) not listed]
light: not shown
notes: EGFR x PD-1 bispecific; scFv-CH (IgG4 S228P) paired with scFv-CL (kappa); also called W336-T1U2.G10-4.uIgG4.SP(dk)
B2: WBP336C = W336-T1U3.G10-4.uhIgG4.SP(dK) (bispecific antibody)
heavy: B1 heavy with L226I
light: not shown
notes: EGFR x PD-1 bispecific; scFv-CH (IgG4 S228P) paired with scFv-CL (kappa); also called W336-T1U3.G10-4.uIgG4.SP(dk)

Tests used:
[1] = target: T1, mouse PD-1, full length, on cells (WBP305.293F.mPro1.B4) (mouse, UniProt Q02242 25-288); assay: FACS on mouse PD-1 expressing 293F cells
T1 construct: whole, on cells; also called murine PD-1
T1 sequence (looked up): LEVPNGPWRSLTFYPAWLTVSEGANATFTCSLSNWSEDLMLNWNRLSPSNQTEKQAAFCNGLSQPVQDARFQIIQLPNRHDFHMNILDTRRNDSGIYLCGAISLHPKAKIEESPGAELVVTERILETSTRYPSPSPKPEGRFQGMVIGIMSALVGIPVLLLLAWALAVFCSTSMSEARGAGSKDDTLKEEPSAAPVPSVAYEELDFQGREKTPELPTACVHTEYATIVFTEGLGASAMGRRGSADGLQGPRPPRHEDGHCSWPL

[2] = target: T1, mouse PD-1, full length, on cells …; assay: FACS-based competition, blocking of murine PD-1/PDL1 interaction
HER2-ECD = target: T2, HER2-ECD (UniProt P04626 partial chain, limits assumed); assay: ELISA on coated HER2-ECD [panel HER2]
T2 construct: extracellular domain

Ag1.E.his = target: T3, Ag1.E.his; assay: ELISA, coated protein 2 µg/mL, antibody 10 µg/ml
T3 construct: Undisclosed protein

human CTLA4 ECD.his = target: T4, human CTLA4 ECD.his (human, UniProt P16410 36-161); assay: ELISA, coated protein 2 µg/mL, antibody 10 µg/ml
T4 construct: extracellular domain; there neither species nor tag is stated; not shown: his tag

CD3e.ECD [3] = target: T5, CD3e.ECD (UniProt P07766 23-126, limits assumed); assay: ELISA, coated protein 2 µg/mL, antibody 10 µg/ml
T5 construct: extracellular domain

CD22.ECD [4] = target: T6, CD22.ECD (UniProt P20273 20-687, limits assumed); assay: ELISA, coated protein 2 µg/mL, antibody 10 µg/ml
T6 construct: extracellular domain

OX40.ECD [5] = target: T7, OX40.ECD (UniProt P43489 29-214); assay: ELISA, coated protein 2 µg/mL, antibody 10 µg/ml
T7 construct: extracellular domain
T7 sequence (looked up): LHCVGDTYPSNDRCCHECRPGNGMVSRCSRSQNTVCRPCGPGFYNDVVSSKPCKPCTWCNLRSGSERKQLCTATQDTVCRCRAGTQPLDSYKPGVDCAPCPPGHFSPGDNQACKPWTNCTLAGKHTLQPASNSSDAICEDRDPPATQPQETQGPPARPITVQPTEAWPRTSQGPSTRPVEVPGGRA

4-1BB.ECD [6] = target: T8, 4-1BB.ECD (UniProt Q07011 24-186); assay: ELISA, coated protein 2 µg/mL, antibody 10 µg/ml
T8 construct: extracellular domain

FGFR-ECD = assay: ELISA, coated protein 2 µg/mL, antibody 10 µg/ml
XAg.ECD = target: T9, XAg.ECD; assay: ELISA, coated protein 2 µg/mL, antibody 10 µg/ml
T9 construct: Undisclosed protein

CD3e.ECD [7] = target: T5, CD3e.ECD; assay: non-specific binding ELISA, coated protein 2 µg/mL
CD22.ECD [8] = target: T6, CD22.ECD; assay: non-specific binding ELISA, coated protein 2 µg/mL
OX40.ECD [9] = target: T7, OX40.ECD; assay: non-specific binding ELISA, coated protein 2 µg/mL
4-1BB.ECD [10] = target: T8, 4-1BB.ECD; assay: non-specific binding ELISA, coated protein 2 µg/mL

Binder	EC50 [1] [µM]	IC50 [2] [µM]	binding result (HER2-ECD)	absorbance at 450 nm (Ag1.E.his) [A450]	absorbance at 450 nm (human CTLA4 ECD.his) [A450]	absorbance at 450 nm (CD3e.ECD [3]) [A450]	absorbance at 450 nm (CD22.ECD [4]) [A450]	absorbance at 450 nm (OX40.ECD [5]) [A450]	absorbance at 450 nm (4-1BB.ECD [6]) [A450]	absorbance at 450 nm (FGFR-ECD) [A450]	absorbance at 450 nm (XAg.ECD) [A450]	binding result (CD3e.ECD [7])	binding result (CD22.ECD [8])	binding result (OX40.ECD [9])	binding result (4-1BB.ECD [10])
B1	0.00711	0.0318	no binding	0.31	0.51	0.42	0.21	0.2	0.62	0.37	0.24	no binding (tested: 10 µg/ml)	no binding (tested: 10 µg/ml)	no binding (tested: 10 µg/ml)	no binding (tested: 10 µg/ml)
B2	–	–	–	0.2	–	–	–	–	–	0.25	–	–	–	–	–
